Laboratory results reported in PubChem BioAssay AID360 (National Center for Advancing Translational Sciences (NCATS), 2006).
Screen size: about 48,000 compounds; about 550 (1.1%) were called active. Another 4% or so got no clear call; they are omitted. Rule as the data show it: active = potency below about 15 µM; inconclusive = mostly about 16 µM to 33 µM; inactive = weaker than that. This is one part of the list.

The compounds below were run against Lysosomal acid glucosylceramidase (Homo sapiens) (UniProt P04062) (assay: Glucocerebrosidase). Conditions: purified enzyme, resorufin glucoside fluorescence (screen aimed at inhibitors), 20 min.
In short: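 Wild-type enzyme at 0.2 nM final in 50mM citric acid/KH2PO4, 10mM sodium taurocholate, 0.01% tween-20, pH 5.9, with resorufin beta-D-glucopyranoside at 30 uM final. Compounds titrated, 20 min at RT, red fluorescence read; AC50 from titration.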
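Also: the screen sought inhibitors.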
Potency is read from the fitted curve at half-maximal effect.

UniProt P04062, sequence (P04062 whole entry, looked up): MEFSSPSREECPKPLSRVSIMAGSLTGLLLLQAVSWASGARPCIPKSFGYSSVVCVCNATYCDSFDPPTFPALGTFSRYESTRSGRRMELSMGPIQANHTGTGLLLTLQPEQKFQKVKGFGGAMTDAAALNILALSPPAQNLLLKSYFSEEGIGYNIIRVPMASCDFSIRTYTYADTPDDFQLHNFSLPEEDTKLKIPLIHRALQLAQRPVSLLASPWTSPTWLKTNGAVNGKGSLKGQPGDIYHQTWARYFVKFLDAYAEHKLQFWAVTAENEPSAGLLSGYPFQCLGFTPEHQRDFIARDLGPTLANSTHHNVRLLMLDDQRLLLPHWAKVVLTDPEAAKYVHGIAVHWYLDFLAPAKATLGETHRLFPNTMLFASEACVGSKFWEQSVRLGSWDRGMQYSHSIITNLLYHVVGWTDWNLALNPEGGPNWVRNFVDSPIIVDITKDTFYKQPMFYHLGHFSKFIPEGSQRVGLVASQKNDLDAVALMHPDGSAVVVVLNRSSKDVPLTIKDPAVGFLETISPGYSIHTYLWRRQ

| SMILES | Potency |
| --- | --- |
| CCOC(=O)C1CCCCC12C(C#N)=C(N)Oc1n[nH]c(C)c12 (stereo not given) | inactive: > 76.9 µM |
| CCC(C)NC(=O)c1c(N)n(CCCOC)c2nc3ccccc3nc12 (stereo not given) | inactive: > 76.9 µM |
| CCOC(=O)C1C(=O)NC2(C)CC1c1cc(OC)ccc1O2 (stereo not given) | inactive: > 76.9 µM |
| CCOC(=O)C1CCN(C(C)C(=O)c2c(C)[nH]c3cc(C)ccc23)CC1 (stereo not given) | inactive: > 76.9 µM |
| O=C1C2CCCN2C(c2cccc(Cl)c2)N1c1ccccn1 (stereo not given) | inactive: > 76.9 µM |
| FC(F)(F)c1ccc2c(c1)NP(=S)(N1CCOCC1)c1nccn1-2 (stereo not given) | inactive: > 76.9 µM |
| CC(=NCc1ccc(F)cc1)c1c(O)n(C)c(=O)n(C)c1=O | inactive: > 76.9 µM |
| c1ccc2[nH]c(CCNC3CCCCC3)nc2c1 | inactive: > 76.9 µM |
| COc1ccc(Cl)cc1NC1=NCC(C)S1 (stereo not given) | inactive: > 76.9 µM |
| CC(=O)N1CCC2(CC1)CC(=O)c1cc(OCC(=O)N3CCN(C)CC3)ccc1O2 | inactive: > 76.9 µM |
| CCCCOC(=O)C1=C(N)OC2=C(C(=O)CCC2)[C@]12C(=O)Nc1ccccc12 | inactive: > 76.9 µM |
| C[C@H]1CCCC(=O)CCCCCc2cc(O)cc(O)c2C(=O)O1 | inactive: > 76.9 µM |
| COc1ccc(-n2c(O)c(C(C)=NC3CC3)c(=O)[nH]c2=O)cc1 | inactive: > 76.9 µM |
| Cc1ccc2c(c1)C1CN(C)CCC1N2C(=O)Cn1cnc2c1c(=O)n(C)c(=O)n2C (stereo not given) | inactive: > 76.9 µM |
| c1ccc(CCn2nnnc2CN2CCC(n3nnc4ccccc43)CC2)cc1 | inactive: > 76.9 µM |
| FC(F)(F)c1ccc2c(c1)nnn2C1CCN(Cc2nnnn2Cc2ccccc2)CC1 | inactive: > 76.9 µM |
| CN(C)c1ccc(N=Cc2c(O)n(CCC3=CCCCC3)c(=O)[nH]c2=O)cc1 | inactive: > 76.9 µM |
| CC(Cc1ccccc1)[n+]1cc(/N=C(\N)[O-])on1 (stereo not given) | inactive: > 76.9 µM |
| CN1CCC2(CC1)NC(=O)C1=C(CN(C)CC1)N2 | inactive: > 76.9 µM |
| CCCCN1CCC(C#N)(Nc2ccccc2)CC1 | inactive: > 76.9 µM |
| Cc1ccc(C2C(S(C)(=O)=O)=C(O)C(=O)N2c2ccccc2)cc1 (stereo not given) (tested in a mixture with another compound) | inactive: > 76.9 µM |
| Cn1c(O)c(C=NCCCN2CCCC2=O)c(=O)n(C)c1=O | inactive: > 76.9 µM |
| Cc1ccc(P(=S)(c2ccc(C)o2)N2CCOCC2)o1 | inactive: > 76.9 µM |

| SMILES | Potency |
| --- | --- |
| Cc1ccc2c(c1)CNc1ccccc1O2 | inactive: > 76.9 µM |
| O=C(CN1CCN(Cc2cccc(Cl)c2)C1=O)N1CCC2(CC1)OCCO2 | inactive: > 76.9 µM |
| CN(C)c1ccc2c(c1)N=C(c1ccco1)OP2(=S)N1CCOCC1 (stereo not given) | inactive: > 76.9 µM |
| Cc1cc(OCC(=O)O)c2c3c(c(=O)oc2c1)CCCC3 | inactive: > 76.9 µM |
| OC1(c2ccc(F)cc2)CC2CCC(C1)N2Cc1nnnn1C1CCCCC1 (stereo not given) | inactive: > 76.9 µM |
| C=COCCn1c(C)c(C(=O)OCC)c2cc(O)ccc21 | inactive: > 76.9 µM |
| Cc1ccc2nc3c(cc2c1)CC1(C(=O)N(C)C(=O)N(C)C1=O)C1COCCN31 (stereo not given) | inactive: > 76.9 µM |
| CCCCOC(=O)C1=C(N)OC2=C(C(=O)CC(C)(C)C2)[C@]12C(=O)N(C)c1ccccc12 | inactive: > 76.9 µM |
| CCCC(=O)C1C(=O)NC(=O)NC1=O | inactive: > 76.9 µM |
| Cc1ccc2c(c1)CC1(CN2C)C(=O)NC(=O)N(c2cccc(C)c2C)C1=O (stereo not given) | inactive: > 76.9 µM |
| O=C1C2CCCN2C(c2ccncc2)N1c1ccc(Cl)c(Cl)c1 (stereo not given) | inactive: > 76.9 µM |
| O=C(O)Cn1cc(C(=O)c2ccccc2)c2ccccc21 | inactive: > 76.9 µM |
| CC12CN3CC(c4ccccc4)(CN(C1)C31CCCCC1)C2=O | inactive: > 76.9 µM |
| Fc1ccc(N2CCN(Cc3ccc4c(c3)OCO4)CC2)cc1 | inactive: > 76.9 µM |
| CCCCn1c(O)c(C(CC)=Nc2ccc(C(=O)O)cc2)c(=O)[nH]c1=O | inactive: > 76.9 µM |
| COC(=O)C(O)(c1c(C)[nH]n(-c2ccccc2)c1=O)C(F)(F)F (stereo not given) | inactive: > 76.9 µM |
| [O-][n+]1onc2c1CCC1N(O)CCC21O (stereo not given) | inactive: > 76.9 µM |
| CC12CN3CCN(CC(C3)C1O)C2 (stereo not given) | inactive: > 76.9 µM |
| CNCCc1c(C)n[nH]c1C | inactive: > 76.9 µM |
| CNP1(NC)=Nc2nn(-c3ccccc3)c(N)c2C(c2ccccc2)=N1 | inactive: > 76.9 µM |
| O=P(OCC(F)(F)C(F)F)(N1CCOCC1)N1CCOCC1 | inactive: > 76.9 µM |
| CCOCCCN=Cc1c(O)n(Cc2ccccc2)c(=O)[nH]c1=O | inactive: > 76.9 µM |
| c1ccc2oc(N3CCNCC3)nc2c1 | inactive: > 76.9 µM |

| SMILES | Potency |
| --- | --- |
| CCCCn1c(N)c(C(=O)OCC2CCCO2)c2nc3ccccc3nc21 (stereo not given) | inactive: > 76.9 µM |
| Cn1c(=O)cc(SCC(=O)N2CCC3(CC2)OCCO3)c2ccccc21 | inactive: > 76.9 µM |
| Cc1ccc(C)c(CN2CCC(n3nnc4cc(F)ccc43)CC2)c1 | inactive: > 76.9 µM |
| Cc1cc(C)n(CCOC(=O)C2C(C=C(Cl)Cl)C2(C)C)n1 (stereo not given) | inactive: > 76.9 µM |
| COc1cc2nc(CN3CC=C(c4ccccc4)CC3)[nH]c(=O)c2cc1OC | inactive: > 76.9 µM |
| O=C1NC(=O)[C@]2(Cc3ccccc3N3CCN(c4ccccc4)CC32)C(=O)N1c1ccccc1 (stereo not given in full) | inactive: > 76.9 µM |
| CC(=NCCC1=CCCCC1)c1c(O)n(C)c(=O)n(C)c1=O | inactive: > 76.9 µM |
| Cc1ccc(N2C(=O)CC(=O)NC2=O)cc1 | inactive: > 76.9 µM |
| Cc1nn(Cc2ccccc2Cl)c(Cl)c1C(=O)OCC(=O)NCc1ccco1 | inactive: > 76.9 µM |
| CN1C(=O)c2ccccc2Sc2ccc(C(=O)N3CCC4(CC3)OCCO4)cc21 | inactive: > 76.9 µM |
| CCCCn1c(O)c(C(C)=Nc2c(C)n(C)n(-c3ccccc3)c2=O)c(=O)[nH]c1=O | inactive: > 76.9 µM |
| CCCCN1C(=O)NC(=O)C2(Cc3c(nc4c(C)cccn4c3=O)N3CCc4ccccc4C32)C1=O (stereo not given) | inactive: > 76.9 µM |
| CCC(=O)N1CCN(CCN=Cc2c(O)n(C)c(=O)n(C)c2=O)CC1 | inactive: > 76.9 µM |
| C[n+]1ccc(-c2ccncc2)cc1 | inactive: > 76.9 µM |
| COc1ccc(C2NCc3ccc4c(c3-n3cccc32)OCO4)cc1O (stereo not given) | inactive: > 76.9 µM |
| COC(=O)CC1NC2CCCCC2NC1=O (stereo not given) | inactive: > 76.9 µM |
| Cc1nonc1-c1nc(-c2nonc2N)n[nH]1 | inactive: > 76.9 µM |
| CCOC(=O)c1[nH]c(C)c(C(=O)N2CCC3(CC2)OCCO3)c1C | inactive: > 76.9 µM |
| CCn1nc(-c2ccccc2)nc2c(=O)n(C)c(=O)nc1-2 | inactive: > 76.9 µM |
| Cc1ccc(CN2CCN(CC(=O)N3CCC4(CC3)OCCO4)C2=O)cc1 | inactive: > 76.9 µM |
| C(=NC12CN3CN(CN(C3)C1)C2)c1cccnc1 | inactive: > 76.9 µM |
| O=C(c1cc2cc3ccc(Cl)cc3nc2o1)N1CCC2(CC1)OCCO2 | inactive: > 76.9 µM |
| O=c1c2ccccc2nc(CN2CCOCC2)n1-c1ccccc1F | inactive: > 76.9 µM |

| SMILES | Potency |
| --- | --- |
| COC(=O)c1ccc(N2C(=O)CC(N3CCC(n4c(=O)[nH]c5ccccc54)CC3)C2=O)cc1 (stereo not given) | inactive: > 76.9 µM |
| CCOC(=O)C1C(=O)N(C)C2(C)CC1c1ccccc1O2 (stereo not given) | inactive: > 76.9 µM |
| Cc1cc(OC(=O)CCNC(=O)OC(C)(C)C)c2c3c(c(=O)oc2c1)CCC3 | inactive: > 76.9 µM |
| CCOC(=O)c1c(C)n(COCCO)c2ccc(O)cc12 | inactive: > 76.9 µM |
| O=C(CNS(=O)(=O)c1cccs1)N1CCC2(CC1)OCCO2 | inactive: > 76.9 µM |
| Cc1ccnc(-n2c(-c3ccco3)nc3ccccc3c2=O)c1 | inactive: > 76.9 µM |
| Cc1ccc2c(c1)N(CCC(=O)N1CCC3(CC1)OCCO3)C(=O)C(C)O2 (stereo not given) | inactive: > 76.9 µM |
| O=c1c2ccccc2nc(-c2ccco2)n1-c1ccc(Br)cn1 | inactive: > 76.9 µM |
| O=P(O)(O)C12CC3CC(CC(C3)C1)C2 | inactive: > 76.9 µM |
| C/C(CCc1c[nH]c2ccccc12)=N\O | inactive: > 76.9 µM |
| O=P1(NCc2ccco2)COc2ccccc2OC1 | inactive: > 76.9 µM |
| Cc1cc(NC(=O)COC(=O)c2c(C)nn(Cc3ccccc3Cl)c2Cl)no1 | inactive: > 76.9 µM |
| CCN(CC)CCN=Cc1c(O)n(C2CCCCCC2)c(=O)[nH]c1=O | inactive: > 76.9 µM |
| CCCCCn1c(=O)c(C(=O)NCc2ccncc2)c(O)c2ccccc21 | inactive: > 76.9 µM |
| CC1=C(C(=O)N2CCC3(CC2)OCCO3)C2(CCC(C)CC2)OC1=O (stereo not given) | inactive: > 76.9 µM |
| O=C(Nc1cccc(OC(=O)N2CCCCC2)c1)N1CCCCC1 | inactive: > 76.9 µM |
| O=C(c1ccc2c(c1)ncn2C1CCCCCC1)N1CCC2(CC1)OCCO2 | inactive: > 76.9 µM |
| Cc1ccc(-n2c(O)c(C=NC3CCCC3)c(=O)[nH]c2=O)c(C)c1 | inactive: > 76.9 µM |
| O=C1NC(=O)C2(Cc3ccccc3N3CCCC32)C(=O)N1Cc1ccccc1 (stereo not given) | inactive: > 76.9 µM |
| CC(=NCCCN1CCOCC1)c1c(O)n(Cc2ccccc2)c(=O)[nH]c1=O | inactive: > 76.9 µM |
| Cn1c(=O)cc(SCC(=O)N2CCC3(CC2)OCCO3)c2ccc(Cl)cc21 | inactive: > 76.9 µM |
